The values below come from publication PMC6026317, “Molecular elements in FGF19 and FGF21 defining KLB/FGFR activity and specificity” (Molecular Metabolism, 2018).

Assay [1] concerns the target T1, Soluble human FGFR1c/KLB receptor complex (FGFR1c ectodomain-Fc with soluble KLB) (human, UniProt P11362 22-376; Q86Z14 1-996).
T1 construct: human FGFR1c ectodomain fused to Fc, coupled to Protein A acceptor beads; human beta-Klotho (KLB) protein, called human soluble KLB; also called FGFR1/KLB complex; soluble FGFR1/KLB receptor complex; source: bought: R&D Systems (both chains)
T1 sequence (looked up) 1: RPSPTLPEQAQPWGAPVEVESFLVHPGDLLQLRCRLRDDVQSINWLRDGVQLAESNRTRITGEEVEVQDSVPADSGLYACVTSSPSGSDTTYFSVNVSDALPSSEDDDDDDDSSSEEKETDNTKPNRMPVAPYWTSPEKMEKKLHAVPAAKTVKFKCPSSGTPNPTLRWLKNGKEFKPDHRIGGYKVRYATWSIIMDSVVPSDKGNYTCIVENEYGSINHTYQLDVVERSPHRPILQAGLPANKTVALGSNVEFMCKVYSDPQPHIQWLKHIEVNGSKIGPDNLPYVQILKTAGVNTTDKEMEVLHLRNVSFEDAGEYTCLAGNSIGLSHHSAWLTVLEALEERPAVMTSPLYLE
T1 sequence (looked up) 2: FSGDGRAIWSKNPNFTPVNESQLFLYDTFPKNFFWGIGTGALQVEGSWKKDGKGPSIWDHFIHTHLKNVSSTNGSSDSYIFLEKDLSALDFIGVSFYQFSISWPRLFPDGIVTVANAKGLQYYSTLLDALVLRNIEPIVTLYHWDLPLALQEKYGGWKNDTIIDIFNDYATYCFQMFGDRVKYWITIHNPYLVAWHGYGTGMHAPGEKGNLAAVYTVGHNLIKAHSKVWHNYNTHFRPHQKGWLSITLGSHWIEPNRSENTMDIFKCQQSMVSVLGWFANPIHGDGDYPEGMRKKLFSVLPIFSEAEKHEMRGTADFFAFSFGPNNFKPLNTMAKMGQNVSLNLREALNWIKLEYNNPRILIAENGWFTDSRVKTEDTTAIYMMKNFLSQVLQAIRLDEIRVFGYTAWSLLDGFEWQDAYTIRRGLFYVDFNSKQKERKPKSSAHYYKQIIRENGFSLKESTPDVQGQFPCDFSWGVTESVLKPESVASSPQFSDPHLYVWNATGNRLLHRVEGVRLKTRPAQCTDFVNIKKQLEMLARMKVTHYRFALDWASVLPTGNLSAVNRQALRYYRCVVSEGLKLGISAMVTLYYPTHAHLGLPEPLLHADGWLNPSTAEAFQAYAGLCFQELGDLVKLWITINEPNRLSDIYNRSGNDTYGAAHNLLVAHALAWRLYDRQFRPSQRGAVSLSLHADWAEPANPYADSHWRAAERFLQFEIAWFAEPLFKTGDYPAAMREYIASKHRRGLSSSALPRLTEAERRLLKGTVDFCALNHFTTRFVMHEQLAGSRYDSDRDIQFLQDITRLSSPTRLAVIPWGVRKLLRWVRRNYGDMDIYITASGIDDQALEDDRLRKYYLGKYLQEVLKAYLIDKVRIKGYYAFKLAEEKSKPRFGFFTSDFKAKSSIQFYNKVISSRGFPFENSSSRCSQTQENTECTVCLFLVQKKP
Kind of assay: AlphaScreen or HTRF; cell-free competition: biotinylated FGF21 on streptavidin donor beads, FGFR1c-Fc or FGFR4-Fc ectodomain on Protein A acceptor beads, human soluble KLB added to give the signal; 5 μg/ml heparin, 0.1% BSA; increasing doses of unlabelled protein or peptide displace biotinylated FGF21. As to conditions: both partners purified.

Assay [2] has as its target T2, Soluble human FGFR4/KLB receptor complex (FGFR4 ectodomain-Fc with soluble KLB) (human, UniProt P22455 22-369; Q86Z14 1-996).
T2 construct: human FGFR4 ectodomain fused to Fc, coupled to Protein A acceptor beads; human beta-Klotho (KLB) protein, called human soluble KLB; also called hFGFR4/KLB; source: bought: R&D Systems (both chains)
T2 sequence (looked up) 1: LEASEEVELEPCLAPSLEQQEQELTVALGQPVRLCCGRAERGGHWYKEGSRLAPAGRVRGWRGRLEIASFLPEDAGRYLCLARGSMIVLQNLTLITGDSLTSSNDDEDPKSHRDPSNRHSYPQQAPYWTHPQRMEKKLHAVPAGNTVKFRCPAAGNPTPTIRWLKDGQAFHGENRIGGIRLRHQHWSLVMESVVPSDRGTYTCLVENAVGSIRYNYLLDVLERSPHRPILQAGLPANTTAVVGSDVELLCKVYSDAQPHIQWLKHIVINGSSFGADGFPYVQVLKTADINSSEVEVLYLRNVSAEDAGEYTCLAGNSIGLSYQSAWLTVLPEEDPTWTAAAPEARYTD
T2 sequence (looked up) 2: T1 sequence (looked up) 2
The description is as above. As to conditions: both partners purified.

B1: Human FGF19 ([…]) (ligand)
chain: not shown
notes: also called fibroblast growth factor 19; native FGF19; source: E. coli OrigamiB (DE3), purified (Ni-NTA, SUMO protease digestion, Q-Sepharose)
One may read the IC50 as the midpoint of a concentration-inhibition curve. Regarding B1, the half-maximal inhibitory concentration (IC50) in assay [1] was found to be 270 nM; in assay [2], 10.6 nM.
